# Assay results: PubChem BioAssay AID1346428 (National Center for Advancing Translational Sciences (NCATS), 2018)
# Out of some 48,000 compounds screened, about 1,200 (2.5%) were called active. Not shown: some 2% with an inconclusive outcome.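 The calls were made as follows: active = activation of at least 60% and not above a set upper limit (about 1 call in 100 departs from these limits); inconclusive = activation of 40% to 60%, or above that upper limit; inactive = activation under 40%.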 The list shows a part of the results.
# Biological target: Probable G-protein coupled receptor 32 (Homo sapiens) (UniProt O75388)
# Sequence of UniProt O75388 (O75388 whole entry, looked up): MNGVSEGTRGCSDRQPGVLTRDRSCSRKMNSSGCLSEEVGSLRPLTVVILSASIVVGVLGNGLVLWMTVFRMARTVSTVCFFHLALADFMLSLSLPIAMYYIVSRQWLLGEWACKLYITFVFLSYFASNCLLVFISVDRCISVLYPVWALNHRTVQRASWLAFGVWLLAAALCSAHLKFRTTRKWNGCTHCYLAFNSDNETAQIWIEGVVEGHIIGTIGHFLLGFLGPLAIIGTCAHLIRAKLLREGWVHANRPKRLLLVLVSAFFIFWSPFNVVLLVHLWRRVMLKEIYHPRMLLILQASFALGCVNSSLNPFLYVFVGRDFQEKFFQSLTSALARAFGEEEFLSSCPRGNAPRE
# Assay: qHTS for Agonists of Human Resolvin D1 Receptor DRV1; also: 0% is about no effect
# Settings: CHO-K1 GPR32 beta-arrestin PathHunter luminescence, 90 min; at 76.9 µM; active compounds read high; zero percent set by DMSO-only wells
# Method in brief: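 Agonism was scored by beta-Gal fragment complementation (chemiluminescent read, 1 h detection at ambient temperature) reporting beta-arrestin binding to GPR32 in engineered CHO-K1 cells. Compound treatment lasted 90 min at 37 C, normalized to a DMSO basal control.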
row,Compound,activation
1,CC(=O)c1c(C)oc2c1cc(NS(=O)(=O)c1ccc(Cl)c(C)c1)c1ccccc12,inactive: 37.5%
2,Cc1cccc(OCC(=O)Nc2nnc(S(=O)(=O)N3CCc4ccccc43)s2)c1,inactive: -0.0358%
3,O=C(Nc1ccc(Cl)cc1)C(NS(=O)(=O)c1cccs1)c1ccccc1 (stereo not given),inactive: 34.7%
4,Cc1ccc(-n2c(Cc3ccccc3)nnc2SCc2nc(-c3cccs3)no2)cc1C,inactive: 6.73%
5,Cc1nc(-c2ccc(C)c(N3CCN(C(=O)Nc4cccc(Cl)c4C)CC3)c2)no1,inactive: 18.6%
6,CCOC(=O)C1CCCN(Cc2cn3c(-c4cccc(Br)c4)nnc3s2)C1 (stereo not given),inactive: 6.42%
7,Cc1nc(-c2ccc(F)cc2)sc1CCNC(=O)C(=O)Nc1ccc2c(c1)OCCO2,inactive: 32.7%
8,OCCN(CCO)c1ncnc2c1cnn2-c1ccc(F)cc1,inactive: 8.99%
9,COC(=O)c1cc(-c2ccc(C)cc2)c2c(=O)n(C)c(=O)n(C)c2n1,inactive: -0.0924%
10,COc1ccccc1C(=O)Oc1ccc(C(c2c(C)[nH][nH]c2=O)c2c(C)[nH][nH]c2=O)cc1,inactive: -44.2%
11,COc1ccc2oc(=O)c(C(=O)N3CCN(c4ccc(C)cc4)CC3)cc2c1,inactive: 16.3%
12,COc1ccc(CC(=O)Nc2ccc(-c3nc4ccccc4s3)c(C)c2)cc1OC,inactive: 11.2%
13,COc1ccc(-c2cc(C(F)(F)F)nc(NCCc3ccccc3)n2)cc1OC,inactive: -8.16%
14,Cc1csc2nc(COC(=O)c3ccccc3NC(=O)c3ccc(C(C)(C)C)cc3)cc(=O)n12,inactive: -8.07%
15,COc1cccc(CNC(=O)c2cc(S(=O)(=O)N3CCCCC3)c[nH]2)c1,inactive: 6.73%
16,Cc1ccc(S(=O)(=O)NC(=O)NN2CC3CCCC3C2)cc1 (stereo not given),inactive: -28.7%
17,CSc1nn(Cc2ccc(C)cc2)c(N)c1S(=O)(=O)c1ccccc1,inactive: 43.3%
18,COc1ccc(-c2cc(C(=O)Nc3c(C)n(C)n(-c4ccccc4)c3=O)no2)cc1OC,inactive: -9.29%
19,O=C(CCCn1c(=O)c2cccn2c2ccccc21)NCCc1ccc(Cl)cc1,inactive: -15.4%
20,CCOC(=O)c1c(NC(=O)C2c3ccccc3Oc3ccccc32)sc(C)c1C,inactive: -23.1%
21,Cc1c(CC(=O)NCc2ccc(F)cc2)c(=O)oc2cc(O)c(Cl)cc12,inactive: 6.55%
22,COc1ccc(NC(=O)CC2NCCNC2=O)c(OC)c1 (stereo not given),inactive: -8.93%

row,Compound,activation
1,CCOc1cccc2sc(N(Cc3cccnc3)C(=O)c3ccc(C#N)cc3)nc12,inactive: -29.6%
2,Cc1cc(C)n(-c2nc3ccccc3nc2N2CCN(c3cccc(C(F)(F)F)c3)CC2)n1,inactive: -3.46%
3,O=C(NCc1ccccc1Cl)c1ccc2oc(=O)n(Cc3ccccc3)c2c1,inactive: -4.48%
4,Cc1cccc(-n2nc(C)c(C(=O)Nc3cc(C)ccc3C)c2-n2cccc2)c1,inactive: -19.8%
5,Cc1ccc(-n2c(SCc3ccccc3)nc3c([nH]c4ccccc43)c2=O)cc1,inactive: 15.8%
6,CCN(CC)CCOc1ccc(Cc2ccccc2)cc1,inactive: 6.89%
7,Cc1ccc(SCc2nc(-c3ccc(C(=O)NCCc4ccc(Cl)cc4)cc3)oc2C)cc1,inactive: 15.9%
8,Cc1nn2c(=O)cc(COC(=O)c3ccccc3NC(=O)COc3ccccc3C)nc2s1,inactive: -13%
9,O=C(NCc1ccccc1F)c1ccc(CSc2nc3cccnc3n2Cc2ccccc2)cc1,inactive: 9.69%
10,COc1ccc(OC)c(CNc2nc3ccc(C)cc3n3nnnc23)c1,inactive: -16.6%
11,COC(=O)c1cc2sc(Cl)cc2n1CC(=O)Nc1cc(C)cc(C)c1,inactive: -16.6%
12,COc1ccc(OC)c(NC(=O)[C@H](CSCc2ccccc2)N2Cc3ccccc3C2=O)c1,inactive: -14.4%
13,CCOC(=O)c1cc(OC(=O)c2ccccc2Cl)n(-c2ccccc2)n1,inactive: -9.01%
14,Cc1ccc(CNC(=O)C(=O)NCC(c2ccco2)S(=O)(=O)c2ccccc2)cc1 (stereo not given),inactive: -1.22%
15,N#Cc1nc(-c2ccc(COc3ccccc3)o2)oc1N1CCCCC1,inactive: -14.7%
16,COC(=O)c1cc2occc2n1CC(=O)Nc1ccc(N(C)C)cc1,inactive: -19.8%
17,Cc1ccc(CNC(=O)Cn2c(=O)n(-c3ccc(C)cc3)c(=O)c3c2c2cc(C)ccc2n3C)cc1,inactive: -2.23%
18,N#CC1=C2SCN(C3CCCCC3)CN2C(=O)CC1c1ccc(Cl)cc1 (stereo not given),inactive: 34.7%
19,Cc1ccccc1NC(=O)Cn1c(=O)n(Cc2ccccc2)c(=O)c2c(C)c(C)sc21,inactive: -7.59%
20,Cn1c(=O)cc(SCC(=O)N2CCN(c3ccccc3F)CC2)c2ccccc21,inactive: -33.5%
21,CCC(Sc1nnc2c3ccccc3n(CC)c2n1)C(=O)Nc1nnc(C(C)C)s1 (stereo not given),inactive: -1.86%
22,COc1ccc(-c2cc3nc(C4CCN(C(=O)OC(C)(C)C)CC4)c(C(=O)Nc4cc(C)cc(C)c4)cn3n2)cc1,inactive: -0.188%

row,Compound,activation
1,COc1ccc2c(CNCCc3cccs3)c(C(=O)O)n(Cc3ccc(F)cc3Cl)c2c1,inactive: -1.17%
2,CCOc1ccc(CN(CCc2ccc3c(c2)OCO3)Cc2cc(OC)c(OC)cc2OC)cc1,inactive: -24.4%
3,CCCCN1CC(c2nc3ccccc3n2CCCCOc2cccc(C)c2C)CC1=O (stereo not given),active: 109%
4,CCCN1CCN(CCCNC(=O)c2ccc3nc(Cc4ccccc4)oc3c2)CC1,inactive: -6.8%
5,CCOc1ccc(NC(=O)CC2C(=O)N(c3cccc(C)c3)C(=O)N2Cc2cccs2)cc1 (stereo not given),inactive: -23.1%
6,COc1ccc(C)cc1NC(=O)c1cc(S(=O)(=O)N2CCCCC2)c[nH]1,inactive: -13.6%
7,COc1cc(NC(=O)CCc2c(C)nn(-c3ccc(N4CCCCC4)nn3)c2C)cc(OC)c1OC,inactive: -10.2%
8,Cc1cc(-n2c(C)nc3ccccc3c2=O)ccc1NC(=O)c1ccccc1[N+](=O)[O-],active: 94%
9,Cc1cc(C)cc(NC(=O)CCCc2nc(-c3ccco3)no2)c1,inactive: -8.91%
10,CCC(C(=O)Nc1cc(F)ccc1F)n1nc(C)c2c(C)n(-c3ccc(C)cc3)nc2c1=O (stereo not given),inactive: -20.4%
11,O=c1c(O)c(-c2cc(O)c(O)c(O)c2)oc2cc(O)cc(O)c12,inactive: 3.38%
12,COc1ccc(CCC(=O)NC2CC(=O)N(c3ccc(OC)cc3)C2)cc1 (stereo not given),inactive: -7.67%
13,Cc1cc(C)c2c(=O)cc(CSc3n[nH]c(C)n3)[nH]c2c1,inactive: 7.2%
14,Cc1cccc(NC(=O)C(=O)NCCc2csc(-c3ccc(F)cc3)n2)c1C,inactive: 15.7%
15,CCN(C(=O)c1cn(CC)c(=O)c2cc(OC)c(OC)cc12)c1ccccc1F,inactive: -18%
16,CCc1ccccc1NC(=O)c1noc2c1CC(C(C)(C)C)CC2 (stereo not given),inactive: -10.3%
17,COc1cc(C(=O)Nc2ccccc2-c2nc(-c3ccc(C)cc3)no2)cc(OC)c1OC,inactive: -14.1%
18,O=C(CSCc1ccc(F)cc1)N1CCc2c([nH]c3ccccc23)C1c1ccc(Cl)cc1 (stereo not given),inactive: -40.1%
19,Cc1cc(N2CCCCC2)nc2ccc(NC(=O)CCC(=O)N3CCN(c4ccccc4)CC3)cc12,inactive: -11.5%
20,CC1=C(C(=O)Nc2cc(Cl)ccc2C)C(c2cccs2)n2ncnc2N1 (stereo not given),inactive: 20.1%
21,Cc1cccc(N2CCN(C(=O)c3ccc(Nc4nc5ccccc5n5nnnc45)cc3)CC2)c1C,inactive: -1.06%
22,CCOC(=O)c1ccc(NC(=O)C2=C(C)Nc3nc(CCCO)nn3C2c2ccc(OC)cc2)cc1 (stereo not given),inactive: -20.7%

row,Compound,activation
1,COc1ccc(NC(=O)CN2C(=O)c3cccnc3Sc3ccccc32)cc1OC,inactive: -16.1%
2,COc1ccc(CCNC(=O)C(C)n2c(=O)cc(-c3ccccc3)c3c(C)nn(C)c32)cc1OC (stereo not given),inactive: 0.716%
3,CCSc1nc(-c2ccccc2F)nc2c1Cc1c(CO)cnc(C)c1O2,inactive: 20.5%
4,COc1cc(C2C(=O)N(C3CCCCC3)CC(=O)N2C2CCCCC2)ccc1OC(C)C (stereo not given),inactive: -14%
5,CCOc1ccc(N(CC)C(=O)c2cc3c(s2)-c2ccccc2OC3)cc1,inactive: 8.4%
6,CC1CCN(c2nc3ccc(C(=O)N4CCN(c5ccccc5)CC4)cc3s2)CC1,inactive: 6.23%
7,Cc1ccc(-c2nc3sccn3c2Nc2ccc(C)c(C)c2)cc1,inactive: 10.4%
8,COc1cccc(N2CCN(C(=O)c3nn(C)c4c3CSc3ccc(C)cc3-4)CC2)c1,inactive: 9.02%
9,CCC(=O)N1CCc2cc(CNC(=O)c3ccc(F)cc3)ccc21,inactive: -9.14%
10,Cc1cc(Cl)ccc1NC(=O)Cn1nnc2sc(-c3ccccc3)cc2c1=O,inactive: -0.339%
11,COc1cc(NC(=O)N2CCC(CN3CCOCC3)CC2)cc(OC)c1OC,inactive: 0.405%
12,CC(C)c1ccc(Nc2ncnc3onc(-c4ccc(F)cc4)c23)cc1,inactive: -7.08%
13,COCCNc1nc2c(c(=O)n(Cc3cccc(Br)c3)c(=O)n2C)n1C,inactive: -6.23%
14,Cc1nc2nc(SCC(=O)NC3CCCCC3)nn2c(C)c1Cc1ccccc1Cl,inactive: 0.962%
15,COC(=O)c1ccc2c(c1)N(Cc1ccc(Cl)cc1)C(=O)c1ccccc1S2,inactive: 7.74%
16,CCCCn1nc(NC(=O)c2cccc(Cl)c2)c2cc3cccc(C)c3nc21,inactive: -13.8%
17,COc1cccc(N2CCN(C(=O)c3cc4c(=O)oc5ccc(C)cc5c4s3)CC2)c1,inactive: 3.75%
18,CCCn1c2ccccc2c2cnn(CC(=O)N3CCCC(C)C3)c(=O)c21 (stereo not given),inactive: -13.6%
19,Cc1ccc(CNC(=O)C2CCN(S(=O)(=O)c3cn(C)cn3)CC2)cc1,inactive: -7.01%
